# Laboratory results taken from PubChem BioAssay AID504832 (National Center for Advancing Translational Sciences (NCATS), 2011).
# About 18,000 (5.8%) of roughly 310,000 compounds were called active. Inconclusive results, whose numbers are uncertain, are shown with a selection of clear calls. The call rests on the fitted dose curve; in most records, active means well fitted inhibition curve with a large enough effect; inconclusive means small, poorly fitted or top-dose-only effect, or another doubt; inactive means no such curve, though single readings can be large or run the other way. Potencies of inconclusive entries are left out as doubtful fits.
# Test: Primary qHTS for delayed death inhibitors of the malarial parasite plastid, 48 hour incubation
# Conditions: P. falciparum luciferase growth in erythrocytes; series mostly up to 28.7 µM; activity change, negative = inhibition: at the top concentration
# Procedure, shortened: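 Here the parasites carry a stable luciferase gene and grow inside erythrocytes in Albumax-based RPMI medium with compound for one erythrocytic cycle. Activity is scored as loss of luminescent signal.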
# On the % scale 0 is the no-effect control and ±100 the full control effect; potency means the concentration at half of the fitted maximal effect; tags describe the fitted curve by direction and shape.
Structure (SMILES),Potency,"activity change, negative = inhibition"
CC(C)(C)[C@@H]1CCC(=O)N(CC[C@H](N=[N+]=[N-])c2ccccc2)CC1,"inconclusive [inhibitor, full curve, poor fit]",
Cc1ccc(-c2cc(C(F)F)n3ncc(C(=O)NCc4ccco4)c3n2)cc1,"inconclusive [inhibitor, full curve]",
O=C(CN1CCCCC1)N/N=C/c1cc2ccccc2nc1Cl,,inactive: -9.72%
Nc1nc(Cl)c(C=O)c(N2CCCCC2)n1,"inconclusive [inhibitor, partial curve, poor fit]",
C=C1C(=O)O[C@@H]2C[C@@H](C)[C@H]3C=CC(=O)[C@]3(O)C[C@@H]12,"inconclusive [inhibitor, single point]",
Oc1ccc(C(c2nnnn2CCc2ccccc2)N2CCN(c3nc4ccccc4s3)CC2)cc1 (stereo unspecified),"inconclusive [inhibitor, partial curve]",
Cc1cccc(OCC(O)Cn2c(NCCCOC(C)C)nc3c2c(=O)[nH]c(=O)n3C)c1 (stereo unspecified),"inconclusive [inhibitor, single point]",
CCC(C)NC(=O)c1ccccc1NC(=O)C1COc2ccccc2O1 (stereo unspecified),active: 1.17 µM,
O=C(O)c1cn(Cc2ccccc2)c2ccc(Cl)cc2c1=O,"inconclusive [inhibitor, single point]",
Nc1nonc1-n1nnc(C(=O)N/N=C/C=C/c2ccccc2)c1CSC1=NCCS1,"inconclusive [inhibitor, partial curve]",
COc1ccc(C(C)=O)cc1COC(=O)CSCC(=O)Nc1ccc(C)cc1,"inconclusive [inhibitor, partial curve, poor fit]",
COC(=O)c1ccc(COc2cc(C)cc3oc(=O)c4c(c23)CCCC4)o1,"inconclusive [inhibitor, single point]",
O=C1C(Cc2ccccc2)SC(=Nc2ccccc2)N1c1ccccc1 (stereo unspecified),active: 13.1 µM,
Cc1ccc(S(=O)(=O)N2CCOCC2)cc1NC(=O)CN1CCN(C)CC1,,inactive: -21.8%
CCCC(=O)Nc1ccc(N2CCN(C(=O)c3cc4ccccc4o3)CC2)cc1,"inconclusive [inhibitor, partial curve, poor fit]",
O=C(CCCSc1nc2ccccc2[nH]1)Nc1nnc(-c2ccccc2)o1,"inconclusive [inhibitor, partial curve]",
CCN1CCN(CC(=O)N2N=C(c3cccs3)CC2c2ccc(OC)c(OC)c2)C(=O)C1=O (stereo unspecified),"inconclusive [inhibitor, single point]",
CC(C)(C)C1=Nn2c(nnc2C2CCCCC2)SC1,"inconclusive [inhibitor, partial curve, poor fit]",
C#Cc1ccc([C@H]2C=C(C(=O)Nc3ccccc3)O[C@@H](OCc3ccc(CO)cc3)C2)cc1,active: 7.38 µM,
Cc1nnc(SCC(=O)c2c(N)n(C3CC3)c(=O)[nH]c2=O)n1-c1ccccc1,"inconclusive [inhibitor, single point]",
COc1ccc(C)cc1NC(=O)c1ccc(CN2CCc3ccccc3C2)cc1,,inactive: -15.2%
C[C@H]1c2cccc(O)c2C(O)=C2C(=O)C3(O)C(O)=C(C(N)=O)C(=O)[C@@H](N(C)C)[C@@H]3[C@@H](O)[C@@H]21 (stereo partly specified),active: 4.65 µM,

Structure (SMILES),Potency,"activity change, negative = inhibition"
CCN(CC(=O)Nc1c(F)cccc1F)C(=O)C1CCN(S(=O)(=O)c2ccc(C)cc2C)CC1,"inconclusive [inhibitor, single point]",
O=C(COC(=O)c1ccccc1Cc1ccccc1)NC1CCS(=O)(=O)C1 (stereo unspecified),,inactive: 3.54%
COc1ccc(N=C2SCC(c3ccccc3)=NN2C)cc1,active: 2.62 µM,
CCCCN(C(=O)c1ccc([N+](=O)[O-])s1)c1c(N)n(CCCC)c(=O)[nH]c1=O,active: 10.4 µM,
CC(=O)Nc1cccc2c1OCCO2,,inactive: 31.3%
COc1ccc(NC(=S)N2C3CCC2CC(NC(=O)NC24CC5CC(CC(C5)C2)C4)C3)c(OC)c1 (stereo unspecified),"inconclusive [inhibitor, full curve]",
COc1ccc(-c2nn(-c3ccccc3)cc2/C=N/Nc2ccccn2)cc1OC,active: 4.65 µM,
Nc1nc(-c2ccccc2)c(N=Nc2ccccc2Cl)s1,"inconclusive [inhibitor, single point]",
C=CCOC(=O)C1=C[C@@H](c2ccccc2)C[C@@H](OCc2ccc(CO)cc2)O1,"inconclusive [inhibitor, full curve, poor fit]",
CN1CCN(c2nc(-c3ccc(Br)cc3)nnc2-c2ccccc2)CC1,"inconclusive [inhibitor, full curve, poor fit]",
OC1CCN(c2c3c(nc4cc(-c5cccc(F)c5)nn24)CCCC3)CC1,active: 9.28 µM,
COc1ccc(C2C(=O)N(C3CCCCCC3)CC(=O)N2Cc2ccccc2)cc1OC (stereo unspecified),"inconclusive [inhibitor, partial curve]",
CC(=O)Nc1ccc(NC(=O)c2sc3nc4c(c(-c5ccc(C)cc5)c3c2N)CCC4)cc1,"inconclusive [inhibitor, single point]",
O=C(Nc1ccc(Oc2ccc(Cl)cc2)c(Cl)c1)c1cc(I)cc(I)c1O,"inconclusive [inhibitor, partial curve, poor fit]",
Cc1c(C(=O)Nc2ccc(Cc3ccncc3)cc2)cccc1[N+](=O)[O-],"inconclusive [inhibitor, single point]",
COc1ccc(N2CCN(C(=O)CSc3nc4[nH]ncc4c(=O)n3-c3cccc4ccccc34)CC2)cc1,"inconclusive [inhibitor, partial curve, poor fit]",
OCCC1CN(Cc2cccn2-c2nccs2)CCN1Cc1ccc(F)c(F)c1 (stereo unspecified),"inconclusive [inhibitor, partial curve, poor fit]",
NC(=O)c1ccc(-n2nnnc2SCC(=O)Nc2ccccc2)cc1,,inactive: -1.07%
COc1ccc(N2C(=S)NC3c4cc(Cl)ccc4OC2(C)C3C(=O)N(C)C)cc1 (stereo unspecified),,inactive: -1.01%
O=C(c1ccccc1OCc1ccc(Cl)cc1)N1CCN(c2ccccn2)CC1,"inconclusive [inhibitor, single point]",
CCOC(=O)c1ccccc1NC(=O)COC(=O)C1CC(=O)N(CCc2ccccc2)C1 (stereo unspecified),,inactive: 39.5%
c1ccc2c(c1)Sc1ccccc1N2CCN1CCCC1,active: 16.9 µM,

Structure (SMILES),Potency,"activity change, negative = inhibition"
COCCCNC(=S)N1CCCN(c2nc3cc(C)c(C)cc3cc2C#N)CC1,"inconclusive [inhibitor, single point]",
O=C(COc1ccccc1Cl)N1CCNC1=O,"inconclusive [inhibitor, full curve, poor fit]",
COc1ccc(-n2nnc3c(=O)n(CC(=O)Nc4cc(C)on4)cnc32)cc1OC,"inconclusive [inhibitor, full curve, poor fit]",
CSCCC(NS(=O)(=O)c1ccccc1F)C(=O)OCc1ccccc1Cl (stereo unspecified),,inactive: 9.54%
Cc1ccc(Cl)cc1NC(=O)c1ccccc1OCC(=O)Nc1ccc(Cl)cc1,"inconclusive [inhibitor, single point]",
Cc1cc(C)cc(NC(=O)C2CCCN(S(=O)(=O)c3ccc4[nH]c(=O)ccc4c3)C2)c1 (stereo unspecified),"inconclusive [inhibitor, partial curve]",
COc1ccc(NC(=O)CN(c2ccc(C)cc2)S(=O)(=O)c2c(C)nn(C)c2C)cc1,"inconclusive [inhibitor, partial curve, poor fit]",
Cc1cccn2c(=O)c(C=C(C#N)C#N)c(N3CCN(c4cccc(Cl)c4)CC3)nc12,active: 7.38 µM,
COc1ccc(N=Nc2nc3ccc(Br)cc3n2C)cc1,"inconclusive [inhibitor, full curve]",
COc1ccccc1C1CC(c2ccccc2)=NN1C(=O)c1ccccc1 (stereo unspecified),active: 0.37 µM,
COc1ccc(N(CC(=O)Nc2cccc(C)c2)S(=O)(=O)c2c(C)n[nH]c2C)cc1,"inconclusive [inhibitor, partial curve]",
Cc1c(NC(=O)C(C)OC(=O)c2ccc([N+](=O)[O-])s2)c(=O)n(-c2ccccc2)n1C (stereo unspecified),"inconclusive [inhibitor, single point]",
Cn1ccc2cc(-c3ccc4ncnc(NCc5ccc6c(c5)OCO6)c4c3)ccc21,active: 13.1 µM,
Cc1cc(C)n(-c2nc3ccccc3c(=O)n2OCC(C)C)n1,,inactive: 17.5%
CCCCc1nnc(SC(C)C(=O)Nc2nccs2)n1C (stereo unspecified),"inconclusive [inhibitor, partial curve, poor fit]",
CC1CCN(C(=O)CSc2nnc(-c3cccnc3)o2)CC1,,inactive: 16.3%
COc1ccc(NC(=O)C2CSC3c4ccccc4C(=O)N23)cc1 (stereo unspecified),"inconclusive [inhibitor, partial curve, poor fit]",
CCCOc1ccc(C(=O)NNC(=S)NC(=O)c2ccco2)cc1,"inconclusive [inhibitor, partial curve]",
O=C(c1ccco1)N(Cc1ccco1)c1ccc(O)cc1,"inconclusive [inhibitor, single point]",
COc1ccccc1NC(=O)Nc1nc(CC(=O)N2CCN(c3ccccc3OC)CC2)cs1,"inconclusive [inhibitor, single point]",
Cc1ccc(-c2nc(CS(=O)(=O)CC(=O)Nc3cc(F)ccc3F)c(C)o2)cc1,,inactive: 39.6%
N#Cc1cc2c(nc1SCC(=O)Nc1ccc(Cl)cc1)C1CCN2CC1,active: 13.1 µM,
